Article PMC5383425, “Differential CLE peptide perception by plant receptors implicated from structural and functional analyses of TDIF-TDR interactions” (PLoS ONE, 2017)
Results are given in words; binding and its absence hold for the method and conditions named. Some binding calls cover weakened binding; strength is not graded here.

Columns and labels:
[1] = target: T1, ecdTDR mutant with Y234, F279, F281, R421 and R423 replaced by alanine (Arabidopsis thaliana) (UniProt Q9FII5); test: condition: 0.5–1 mM peptide titrated into 10–40 μM ecdTDR; ITC; 0.5–1 mM peptide titrated into 10–40 μM ecdTDR; 25°C; 10 mM sodium citrate, 100 mM NaCl, pH 5.5; fitted to one set of binding sites; MicroCal Auto-iTC200; both purified
T1 sequence: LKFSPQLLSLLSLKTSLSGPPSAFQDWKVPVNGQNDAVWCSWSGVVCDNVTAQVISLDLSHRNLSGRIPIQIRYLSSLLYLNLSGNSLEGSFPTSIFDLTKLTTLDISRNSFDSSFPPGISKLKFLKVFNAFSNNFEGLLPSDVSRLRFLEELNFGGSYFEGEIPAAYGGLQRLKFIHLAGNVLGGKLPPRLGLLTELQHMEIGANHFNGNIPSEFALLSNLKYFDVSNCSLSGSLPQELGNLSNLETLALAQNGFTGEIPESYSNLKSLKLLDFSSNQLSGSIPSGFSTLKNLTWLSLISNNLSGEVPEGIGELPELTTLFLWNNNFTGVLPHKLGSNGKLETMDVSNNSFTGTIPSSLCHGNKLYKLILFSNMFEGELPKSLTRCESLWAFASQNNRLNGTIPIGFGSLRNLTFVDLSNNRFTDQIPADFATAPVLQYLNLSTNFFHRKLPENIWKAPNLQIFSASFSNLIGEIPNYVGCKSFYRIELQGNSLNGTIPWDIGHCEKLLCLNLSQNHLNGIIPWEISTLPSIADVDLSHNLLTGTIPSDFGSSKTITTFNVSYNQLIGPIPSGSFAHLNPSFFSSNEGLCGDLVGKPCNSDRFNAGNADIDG

[2] = target: T2, TDR-S305A/W353A/R421A/R423A quadruple mutant (ecdTDR) (Arabidopsis thaliana) (UniProt Q9FII5); test: as above
T2 sequence: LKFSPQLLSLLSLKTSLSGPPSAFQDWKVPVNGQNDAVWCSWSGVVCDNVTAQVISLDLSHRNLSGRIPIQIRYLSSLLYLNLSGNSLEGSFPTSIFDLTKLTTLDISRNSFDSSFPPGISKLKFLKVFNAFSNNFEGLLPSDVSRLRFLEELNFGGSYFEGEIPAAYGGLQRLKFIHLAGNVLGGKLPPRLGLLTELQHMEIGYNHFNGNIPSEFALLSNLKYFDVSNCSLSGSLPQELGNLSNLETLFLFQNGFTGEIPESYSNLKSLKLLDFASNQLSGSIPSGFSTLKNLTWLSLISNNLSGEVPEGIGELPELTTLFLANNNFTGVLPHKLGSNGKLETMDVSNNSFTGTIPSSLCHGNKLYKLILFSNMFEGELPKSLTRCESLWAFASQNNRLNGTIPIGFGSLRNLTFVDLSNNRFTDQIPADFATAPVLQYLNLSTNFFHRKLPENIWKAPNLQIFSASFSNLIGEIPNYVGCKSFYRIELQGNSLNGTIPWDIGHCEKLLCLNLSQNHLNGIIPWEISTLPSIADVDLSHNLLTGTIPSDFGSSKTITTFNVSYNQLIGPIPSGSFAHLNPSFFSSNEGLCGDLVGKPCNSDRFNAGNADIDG

[3] = target: T3, ecdTDR I399A mutant (Arabidopsis thaliana) (UniProt Q9FII5); test: ITC; 0.5–1 mM peptide titrated into 10–40 μM ecdTDR; 25°C; 10 mM sodium citrate, 100 mM NaCl, pH 5.5; fitted to one set of binding sites; MicroCal Auto-iTC200; both purified
T3 sequence: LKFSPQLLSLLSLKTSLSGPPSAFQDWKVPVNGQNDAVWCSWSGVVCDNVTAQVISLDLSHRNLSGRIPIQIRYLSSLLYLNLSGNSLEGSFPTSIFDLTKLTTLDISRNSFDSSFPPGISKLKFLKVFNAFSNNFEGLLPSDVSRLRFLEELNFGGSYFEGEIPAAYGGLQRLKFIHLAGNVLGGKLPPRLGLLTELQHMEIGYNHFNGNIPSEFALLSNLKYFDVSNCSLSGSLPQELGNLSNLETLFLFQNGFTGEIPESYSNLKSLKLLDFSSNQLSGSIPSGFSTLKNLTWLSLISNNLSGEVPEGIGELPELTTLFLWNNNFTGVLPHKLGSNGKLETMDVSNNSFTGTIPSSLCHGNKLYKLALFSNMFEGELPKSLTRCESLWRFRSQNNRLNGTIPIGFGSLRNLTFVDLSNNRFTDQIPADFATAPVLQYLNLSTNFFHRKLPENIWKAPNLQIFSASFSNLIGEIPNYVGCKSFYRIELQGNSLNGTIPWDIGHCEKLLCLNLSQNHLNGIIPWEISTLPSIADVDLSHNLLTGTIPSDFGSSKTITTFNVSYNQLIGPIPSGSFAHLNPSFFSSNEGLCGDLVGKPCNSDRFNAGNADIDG

[4] = target: T4, ecdTDR K397A mutant (Arabidopsis thaliana) (UniProt Q9FII5); test: as above
T4 sequence: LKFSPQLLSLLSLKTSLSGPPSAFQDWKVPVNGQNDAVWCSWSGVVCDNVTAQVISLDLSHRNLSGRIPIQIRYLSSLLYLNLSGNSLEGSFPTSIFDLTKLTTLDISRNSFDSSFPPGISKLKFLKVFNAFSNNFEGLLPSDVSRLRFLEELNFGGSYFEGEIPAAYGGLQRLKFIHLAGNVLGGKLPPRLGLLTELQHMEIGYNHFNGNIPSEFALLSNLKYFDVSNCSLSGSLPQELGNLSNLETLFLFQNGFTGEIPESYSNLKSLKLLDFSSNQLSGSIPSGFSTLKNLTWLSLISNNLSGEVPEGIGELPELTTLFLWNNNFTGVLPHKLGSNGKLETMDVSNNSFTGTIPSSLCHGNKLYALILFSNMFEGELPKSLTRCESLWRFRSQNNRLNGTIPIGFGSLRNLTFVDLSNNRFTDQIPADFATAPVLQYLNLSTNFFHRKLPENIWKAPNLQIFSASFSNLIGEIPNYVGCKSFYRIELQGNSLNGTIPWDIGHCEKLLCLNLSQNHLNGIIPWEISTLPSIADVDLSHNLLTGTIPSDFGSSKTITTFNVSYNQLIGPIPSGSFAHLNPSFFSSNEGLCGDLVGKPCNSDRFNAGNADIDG

[5] = target: T5, ecdTDR S377A mutant (Arabidopsis thaliana) (UniProt Q9FII5); test: as above
T5 sequence: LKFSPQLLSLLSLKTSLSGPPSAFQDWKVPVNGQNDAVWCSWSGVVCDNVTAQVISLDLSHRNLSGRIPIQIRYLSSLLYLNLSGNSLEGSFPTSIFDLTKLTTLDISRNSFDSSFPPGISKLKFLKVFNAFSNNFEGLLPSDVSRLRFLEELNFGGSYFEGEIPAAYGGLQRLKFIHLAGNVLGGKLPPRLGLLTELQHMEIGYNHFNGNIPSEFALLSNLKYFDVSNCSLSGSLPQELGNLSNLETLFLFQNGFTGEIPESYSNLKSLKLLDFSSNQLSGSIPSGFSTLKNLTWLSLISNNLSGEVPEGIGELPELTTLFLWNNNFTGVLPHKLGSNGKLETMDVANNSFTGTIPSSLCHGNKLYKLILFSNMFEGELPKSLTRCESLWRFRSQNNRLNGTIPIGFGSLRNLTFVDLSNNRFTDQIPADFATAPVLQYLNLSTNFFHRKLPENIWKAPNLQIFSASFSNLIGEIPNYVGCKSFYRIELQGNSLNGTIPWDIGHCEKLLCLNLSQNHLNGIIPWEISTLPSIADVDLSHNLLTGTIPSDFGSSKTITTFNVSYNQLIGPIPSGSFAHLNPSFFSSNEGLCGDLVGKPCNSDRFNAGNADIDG

binding [1]: no binding
binding [2]: no binding
binding [3]: binds
binding [4]: binds
binding [5]: binds
Binder: HEVPSGPNPISN (hydroxyproline at 4 and 7) [Tracheary Element Differentiation Inhibitory Factor (TDIF) peptide]
